Results: patent US20100310561A1, “NATRIURETIC FUSION PROTEINS” (BOEHRINGER INGELHEIM INTERNATIONAL GMBH, priority 2007, published 2010)

B1: ANPXY-L4-Fc1AB (protein)
chain: SLRRSSCFGGRMDRIGAQSGLGCNSFRYGGSGGSGGSGG[not shown - human IgG1 Fc]
modifications: Synthesized ANPxy-L4-Fc1ab (protein)
B2: ANPXY-L6-Fc1AB (protein)
chain: SLRRSSCFGGRMDRIGAQSGLGCNSFRYGGSGGSGGSGGSGGSGGSGG[not shown - human IgG1 Fc]
modifications: Synthesized ANPxy-L6-Fc1ab (protein)

Assay: Single-dose rat PK study of recombinant ANP-Fc fusions, i.v. or s.c.
Type: in vivo
Details: 1 mg/kg, Sprague Dawley rats

Molecule	half-life (T½) (intravenous bolus)	mean resonance time (MRT) (intravenous bolus)	volume of distribution (Vss) (intravenous bolus)	area under the curve (AUC) (subcutaneous)	half-life (T½) (subcutaneous)	maximum serum concentration obtained (Cmax) (subcutaneous)	percent bioavailability (% F) (subcutaneous)
B1	12.3 h	2.94 h	0.49 L/kg	2.68 µg·h/mL	18.2 h	0.0708 µg/mL	22.2%
B2	11.5 h	1.94 h	0.27 L/kg	2.521 µg·h/mL	20.3 h	0.0711 µg/mL	17.3%
